Out of some 150,000 compounds screened, about 540 (0.36%) showed an effect of 50% or more. The list shows a part of the results.

In the assay the test system is Plasmodium falciparum. In words: Primary screen in NF54 nanoGlo assay, in single point, at 2uM, 72h; a lower Z score goes with more inhibition. It counts as functional, Erythrocyte. The note with it: timepoint 72 hour.
Broadly, the % Inhibition is the drop in the measured response relative to a control, in per cent. On to `O=C(O)[C@@H]1CC2(CCN(c3ccc(Cl)cn3)CC2)CN1`, for which the “% Inhibition” value is 0% and the Z score turned out to be 0.05.

As to `O=C(c1ccc(Cl)c(S(=O)(=O)N2CCCCCC2)c1)N1CCC2(CC1)OCCO2`, the “% Inhibition” value is listed as 2% and the Z score is -0.22.

Turning to `COc1ccc(-n2nc(C)c3sc(N(C)CC(=O)N4CCC5(CC4)OCCO5)nc32)cc1`, the “% Inhibition” value is -15% and the Z score is recorded as 2.09.

In the case of `Cc1[nH]c2c(C)ccc(C)c2c1CC(=O)N1CCN(C[C@@H](O)CN(C)C)CC1`, the “% Inhibition” value was -5% and the Z score is on record as 0.78.

As to `CC(=O)C1(c2ccccc2)CCN(C(=O)c2cn(Cc3ccccc3F)nn2)CC1`, the “% Inhibition” value is on record as -5% and the Z score worked out at 0.8.

In the case of `Cc1noc([C@H](C)N2CCCN(C(=O)COc3ccccc3)CC2)n1`, the “% Inhibition” value is -8% and the Z score is 1.52.

In the case of `Cc1cnn(C[C@H](C)NCc2nc(C)c(C)o2)c1`, the “% Inhibition” value is -3% and the Z score is on record as 0.3.

For `Cc1cc(CC(C)NC2CCCC2(C)C)n[nH]1` (stereo not drawn), the “% Inhibition” value is listed as -6% and the Z score came out at 0.59.

In the case of `O=C(NCc1cccnc1)NC1CCCCC1`, the “% Inhibition” value was -3% and the Z score was found to be 0.35.

For `COC(C)(C)C(=O)N1C[C@H](c2cc(F)cc(F)c2)[C@@H]2[C@H]1C1CCN2CC1`, the “% Inhibition” value is -4% and the Z score came to 0.8.

For `CO[C@H]1CN(C)C[C@@H]1NS(=O)(=O)c1cc2oc(=O)[nH]c2cc1C`, the “% Inhibition” value stood at 0% and the Z score was found to be 0.

`CN1C(=O)C2(CCN(Cc3cc4ccccc4o3)CC2)c2ccccc21`: the “% Inhibition” value is listed as -13% and the Z score stood at 2.36.

On to `Brc1cc(CN2CC[C@]3(CCOC3)C2)c2ncccc2c1`, for which the “% Inhibition” value is -6% and the Z score is recorded as 0.68.

Turning to `COc1ccccc1C(O)CNC(C)C1CC1` (stereo not drawn), the “% Inhibition” value is given as -1% and the Z score worked out at 0.11.

As to `O=C(Cc1ccccn1)N1CCN(Cc2cc(Cl)ccc2F)CC1`, the “% Inhibition” value is reported as -9% and the Z score stood at 1.12.

Take `COc1ccc(N2C(=O)NC(=O)[C@H](C(c3ccc(F)cc3)c3ccc(F)cc3)C2=O)cc1`: the “% Inhibition” value is on record as 22% and the Z score is given as -2.77.

For `Cc1ccc(N(C)C(=O)Oc2cc3ccccc3cc2OC(=O)N(C)c2ccc(C)cc2)cc1`, the “% Inhibition” value is given as -4% and the Z score is recorded as 0.66.

Regarding `CC(C)=CCC[C@H](C)NCCc1ccc(O)cc1`, the “% Inhibition” value was 9% and the Z score is -1.3.

For the molecule `CC(=O)N1CCC[C@H](N(CCN(C)C(=O)Cc2ccc(F)cc2)C2CCOCC2)C1`, the “% Inhibition” value worked out at 1% and the Z score is -0.09.

As for `COc1cccc([C@H]2CN(C(=O)CN3CCOCC3)[C@@H]3C4CCN(CC4)[C@H]23)c1`, the “% Inhibition” value is -2% and the Z score was determined as 0.29.

With `COc1ncc(Cn2cnc(C#N)n2)c(C)n1`, the “% Inhibition” value was -1% and the Z score was 0.26.

Take `CC(C)NC(=O)CN1[C@@H]2CC[C@H]1[C@@H](NC(=O)c1cccc(-n3ccnn3)c1)C2`: the “% Inhibition” value was 11% and the Z score was -1.46.

`O=S(=O)(c1cccnc1)N1C2CCC1c1ccccc12`: the “% Inhibition” value was -10% and the Z score is 1.28.

In the case of `O=C(CCc1nc(C2=CCN(Cc3ccc(Cl)cc3)CC2)no1)NCc1ccc2c(c1)OCO2`, the “% Inhibition” value is given as -11% and the Z score is on record as 1.56.

In the case of `C[C@@H](CN1CCCCC1)NC(=O)c1ccc(N)cn1`, the “% Inhibition” value was 5% and the Z score is -0.67.

As for `COc1cc(S(=O)(=O)F)ccc1OCc1noc(C2CC2)n1`, the “% Inhibition” value is listed as 2% and the Z score is -0.29.

For the molecule `CN1CCN(C(=O)COc2ccc(S(=O)(=O)N3CCCC3)cc2)CC1`, the “% Inhibition” value is -6% and the Z score is recorded as 0.72.

In the case of `O=C(NC1CCCCC1)Oc1c(Cl)cc2oc(=O)sc2c1Cl`, the “% Inhibition” value is reported as -7% and the Z score was determined as 0.92.

As to `O=C(Nc1cc(F)cc2c1OCOC2)N1CCN(CCO[C@@H](c2ccccc2)c2ccc(F)c(F)c2)CC1`, the “% Inhibition” value is given as 2% and the Z score is listed as -0.48.

Take `CC(C)=CCC[C@H](C)N[C@H]1CC[C@H](O)CC1`: the “% Inhibition” value was 9% and the Z score is -1.18.

Consider `CN1CCC2(CCCN2C(=O)Cc2ccc(S(=O)(=O)F)cc2)CC1`, for which the “% Inhibition” value was -1% and the Z score came out at 0.11.

As to `O=C(Cc1ccc(F)cc1)NCC#CCN1CCCC1`, the “% Inhibition” value is -7% and the Z score came out at 1.3.

Turning to `c1cc(-c2ccc(-c3ccc4c(c3)CNCC4)cc2)[nH]n1`, the “% Inhibition” value is recorded as -4% and the Z score is given as 0.81.

For `CN1C[C@H]2CCC(Nc3cc(C4CC4)ccn3)[C@H]2C1` (stereo partly drawn), the “% Inhibition” value is reported as -3% and the Z score is 0.69.

As to `CCCc1nc(C)cc(N2C[C@H]3c4cccc(OC)c4OC[C@@]3(C(=O)O)C2)n1`, the “% Inhibition” value was determined as 0% and the Z score stood at 0.05.

Take `CCCN1CCN(C(=O)Cc2ccc3c(c2)OCO3)[C@H]2CS(=O)(=O)C[C@H]21`: the “% Inhibition” value amounted to 1% and the Z score is -0.14.

On to `Cc1ccc2c(n1)N(C)[C@H](CO)CCN(C1CCCCC1)C2`, for which the “% Inhibition” value is given as -9% and the Z score is 1.74.

For `OC[C@H]1CC[C@@H](NC2CCCC(C(F)(F)F)C2)CC1` (stereo partly drawn), the “% Inhibition” value was -7% and the Z score was found to be 1.08.

As to `C[C@@H](Cc1c(Cl)cccc1Cl)NC(=O)NCCO`, the “% Inhibition” value is listed as -1% and the Z score amounted to 0.16.

Consider `CCOC1CC(NC2CCC(O)(C(F)(F)F)CC2)C12CCC2` (stereo not drawn), for which the “% Inhibition” value was -9% and the Z score is listed as 1.16.

Regarding `COc1ccc([C@H]2C[C@H]3CC[C@@H](C2)N3Cc2cccc(O)c2)cc1`, the “% Inhibition” value stood at 10% and the Z score is -1.4.

With `Cn1c(=O)oc2cc(-c3csc(-c4ccccc4)n3)ccc21`, the “% Inhibition” value is recorded as -11% and the Z score came to 1.69.

Take `CCOc1cc(N2CCN3CCOC[C@]3(CO)C2)nc(C)n1`: the “% Inhibition” value is -1% and the Z score was determined as 0.13.

With `COc1ccc(NC(=O)C2CC3CCC2N3C(=O)C2CCC(F)(F)CC2)cn1` (stereo not drawn), the “% Inhibition” value came out at 0% and the Z score is on record as -0.04.

Take `CC1CC(NC(=O)C2(N(C)C)CCC(c3ccccc3)CC2)CCO1` (stereo not drawn): the “% Inhibition” value was -3% and the Z score is on record as 0.57.

Regarding `CCn1nccc1CNc1ccc2oc(=O)[nH]c2c1`, the “% Inhibition” value is -10% and the Z score came to 1.02.

With `CCc1nsc(N[C@@H]2CNC(=O)C2)n1`, the “% Inhibition” value is on record as -7% and the Z score is 0.96.

Take `C=C(C)COc1ccccc1NC(=O)c1[nH]cnc1C`: the “% Inhibition” value is on record as -19% and the Z score stood at 1.7.

For the molecule `CC(NCCc1ccc2[nH]ccc2c1)C1(C)CCCO1` (stereo not drawn), the “% Inhibition” value is reported as 3% and the Z score is given as -0.27.

In the case of `O=C(c1ncccc1O)N1C[C@@H]2CC[C@H]1CN(C1CCOCC1)C2`, the “% Inhibition” value is -11% and the Z score is recorded as 1.02.

For `Clc1ccc2ncc(CN3CCC[C@@]4(CCOC4)C3)n2c1`, the “% Inhibition” value is listed as -9% and the Z score was determined as 1.14.

On to `O=C(c1ccc(C(F)(F)F)cc1)[C@H]1CCCN(CCN2CCOCC2)C1`, for which the “% Inhibition” value was -1% and the Z score turned out to be 0.12.

Consider `Cc1ccc([C@@H]2COCCN2Cc2ccccc2N(C)C2CCN(C)CC2)o1`, for which the “% Inhibition” value was -6% and the Z score was 0.81.

`O=C(Cn1cnc2ccccc21)N[C@H]1COC[C@@H]1N1CCOCC1`: the “% Inhibition” value is on record as 1% and the Z score was -0.11.
